Among the data in the antibiotic and cytotoxicity screens of Wong et al. (2023) are cytotoxicity call and growth inhibition call values, retold here.

The other results are listed elsewhere or left out.

The subject of one test is HepG2. Description: cytotoxicity call (relative viability < 0.9). The note with it: 10 µM.
Regarding `C[C@H](CO)N1C[C@H](C)[C@@H](CN(C)S(=O)(=O)c2cn(C)cn2)Oc2ccc(NC(=O)Cn3cnnn3)cc2C1=O`, the cytotoxicity call is “inactive”.

For the compound `Cc1noc(C)c1S(=O)(=O)N(C)C[C@@H]1OCCCC[C@@H](C)Oc2ccc(NS(=O)(=O)c3cn(C)cn3)cc2C(=O)N([C@@H](C)CO)C[C@H]1C`, the cytotoxicity call was “inactive”.

Consider `C[C@@H]1CN([C@H](C)CO)C(=O)Cc2cc(NC(=O)Cn3cnnn3)ccc2O[C@H]1CN(C)S(=O)(=O)c1ccccc1`, for which the cytotoxicity call was “inactive”.

As for `C[C@@H]1CN([C@H](C)CO)C(=O)c2cc(NC(=O)Nc3ccc(C(F)(F)F)cc3)ccc2O[C@H]1CN(C)Cc1ccc(C(F)(F)F)cc1`, the cytotoxicity call is “active”.

On to `CC#CCCC(=O)O`, for which the cytotoxicity call was “inactive”.

Turning to `COc1ccc(S(=O)(=O)N2C[C@H](O)COC[C@H]3O[C@@H](CC(=O)N[C@@H]4CCN(Cc5ccccc5)C4)CC[C@@H]32)cc1`, the cytotoxicity call is “inactive”.

`C[C@@H]1CN([C@H](C)CO)C(=O)c2cc(NC(=O)Cc3ccccc3)ccc2O[C@@H](C)CCCCO[C@@H]1CN(C)S(=O)(=O)c1ccc(F)cc1`: the cytotoxicity call is “inactive”.

`CCCNC(=O)COc1cccc([C@@H](CCc2ccc(OC)c(OC)c2)OC(=O)[C@@H]2CCCCN2C(=O)C(=O)C(C)(C)CC)c1`: the cytotoxicity call was “active”.

For `CC(C)(CO)[C@@H](O)C(=O)NCCCO`, the cytotoxicity call is “inactive”.

As to `C[C@H](CO)N1C[C@H](C)[C@H](CN(C)S(=O)(=O)c2ccccc2)Oc2ccc(NC(=O)Nc3cccc4ccccc34)cc2C1=O`, the cytotoxicity call is “inactive”.

Regarding `CS(=O)(=O)N1C[C@H](NC(=O)C2CC2)[C@H]2OCCC[C@H]21`, the cytotoxicity call is “inactive”.

Consider `COc1ccc2c3c(n(c2c1)C)[C@@H](CO)N(C[C@]13CN(CC2CCOCC2)C1)C(=O)c1ccc(cc1)F`, for which the cytotoxicity call is “inactive”.

As to `CC(C)C[C@H]1CC(=O)N=C(N)N1`, the cytotoxicity call was “inactive”.

In the case of `C[C@H](CO)N1C[C@H](C)[C@@H](CN(C)C(=O)Nc2cccc3ccccc23)Oc2c(NC(=O)Nc3ccccc3)cccc2C1=O`, the cytotoxicity call was “inactive”.

Consider `CN1CCN(C(=O)C[C@H]2C=C[C@@H](NC(=O)c3ccc4c(c3)OCO4)[C@@H](CO)O2)CC1`, for which the cytotoxicity call is “inactive”.

With `C[C@H](CO)N1C[C@H](C)[C@@H](CN(C)CC2CC2)Oc2ccc(NS(=O)(=O)c3cn(C)cn3)cc2CC1=O`, the cytotoxicity call is “inactive”.

Turning to `C[C@@H]1O[C@H](O[C@@H]2[C@H](Oc3c(-c4ccc(O)cc4)oc4cc(O)cc(O)c4c3=O)O[C@H](CO[C@@H]3O[C@H](C)[C@@H](O)[C@H](O)[C@@H]3O)[C@@H](O)[C@@H]2O)[C@@H](O)[C@H](O)[C@@H]1O`, the cytotoxicity call was “inactive”.

`CC1C(=O)CCC1=O`: the cytotoxicity call is “inactive”.

`CNC(=O)N1C[C@H]2C[C@@H]3[C@@](C1)(CN(C)S3(=O)=O)O2`: the cytotoxicity call is “inactive”.

In the case of `C[C@@H]1CN([C@@H](C)CO)C(=O)c2cc(NC(=O)Cn3cnnn3)ccc2O[C@H]1CN(C)C(=O)Nc1ccc2c(c1)OCO2`, the cytotoxicity call was “inactive”.

For the compound `C[C@H]1CN([C@@H](C)CO)C(=O)c2cc(NC(=O)Nc3ccc4c(c3)OCO4)ccc2O[C@@H]1CN(C)Cc1ccc(Cl)c(Cl)c1`, the cytotoxicity call is “inactive”.

As for `CC(C)NC(=O)N(C)C[C@@H]1OCCCC[C@H](C)Oc2ccc(NS(C)(=O)=O)cc2C(=O)N([C@@H](C)CO)C[C@@H]1C`, the cytotoxicity call was “inactive”.

Another test deals with S. aureus RN4220. Description: growth inhibition call (relative growth <= 0.2). Conditions: 50 µM.
For the compound `C[C@H]1CN([C@@H](C)CO)C(=O)c2cc(NC(=O)Nc3cccc4ccccc34)ccc2O[C@@H]1CN(C)C(=O)Nc1ccc(C(F)(F)F)cc1`, the growth inhibition call was “inactive”.

As for `C[C@H](CO)N1C[C@H](C)[C@@H](CN(C)Cc2ccc(Oc3ccccc3)cc2)Oc2ccc(NC(=O)Nc3ccccc3)cc2C1=O`, the growth inhibition call was “inactive”.

With `CO[C@@H](CN(C)S(=O)(=O)c1cccc(Cl)c1)[C@H](C)CN([C@H](C)CO)S(=O)(=O)c1cccc(Cl)c1`, the growth inhibition call is “inactive”.

Turning to `O=C(NO)c1ccc(C(=O)N/N=C/[C@H](O)[C@@H](O)[C@H](O[C@@H]2O[C@H](CO)[C@H](O)[C@H](O)[C@H]2O)[C@H](O)CO)cc1`, the growth inhibition call is “inactive”.

`C[C@H](CO)N1C[C@H](C)[C@@H](CN(C)C(=O)CCC(F)(F)F)OCCCC[C@H](C)Oc2ccc(NS(=O)(=O)c3cccs3)cc2C1=O`: the growth inhibition call was “inactive”.

In the case of `C[C@@H]1CCCCO[C@@H](CN(C)C(=O)NC2CCCCC2)[C@@H](C)CN([C@@H](C)CO)C(=O)c2cc(NS(=O)(=O)c3ccc(Cl)cc3)ccc2O1`, the growth inhibition call was “inactive”.

With `C[C@H](CO)N1C[C@H](C)[C@@H](CN(C)S(=O)(=O)c2ccc(F)cc2)Oc2ccc(NS(=O)(=O)c3cccs3)cc2C1=O`, the growth inhibition call is “inactive”.

`CCNC(=O)C[C@H]1CC[C@H](NC(=O)C2CC2)[C@H](CO)O1`: the growth inhibition call was “inactive”.

In the case of `CCCNC(=O)N1CC[C@]2(CC1)CN([C@@H](CO)c1[nH]c3cc(ccc3c12)OC)C(=O)CN1CCOCC1`, the growth inhibition call is “inactive”.

With `O=C(O)c1ccc2c(ccc3nn(-c4ccc(/C=C/c5ccc(-n6nc7ccc8cc(C(=O)O)ccc8c7n6)cc5S(=O)(=O)O)c(S(=O)(=O)O)c4)nc32)c1`, the growth inhibition call is “inactive”.

As for `O=C(C=Cc1ccc(O)cc1)c1ccccc1`, the growth inhibition call was “inactive”.

Take `COc1ccc(S(=O)(=O)N(C)C[C@@H]2Oc3ccc(NC(=O)c4ccncc4)cc3C(=O)N([C@H](C)CO)C[C@@H]2C)cc1`: the growth inhibition call was “inactive”.

As for `CN(C)[C@@H](CN)c1cccn1C`, the growth inhibition call was “inactive”.

In the case of `COc1ccc(S(=O)(=O)N(C)C[C@@H]2OCCCC[C@H](C)Oc3ccc(NC(=O)CCC(F)(F)F)cc3C(=O)N([C@@H](C)CO)C[C@H]2C)cc1`, the growth inhibition call is “inactive”.

Consider `C[C@@H](O)C#Cc1ccc2c(c1)O[C@H](CN(C)C(=O)CN(C)C)[C@@H](C)CN([C@@H](C)CO)S2(=O)=O`, for which the growth inhibition call was “inactive”.

Regarding `COCCOC(=O)N1C(=O)[C@@]2(c3cc(C#CC4(O)CCCCCC4)ccc31)[C@H](c1ccccc1OCCO)N1[C@H](c3ccccc3)[C@H](c3ccccc3)OC(=O)[C@H]1[C@@H]2C(=O)N1CCc2cc(OC)c(OC)cc2C1`, the growth inhibition call was “inactive”.

On to `C[C@@H]1CN([C@H](C)CO)C(=O)Cc2cc(NC(=O)CCN3CCOCC3)ccc2O[C@H]1CN(C)C(=O)NC1CCCCC1`, for which the growth inhibition call is “inactive”.

For the compound `COc1ccc(S(=O)(=O)Nc2ccc3c(c2)C(=O)N([C@H](C)CO)C[C@H](C)[C@@H](CN(C)C(=O)Nc2ccccc2)OCCCC[C@H](C)O3)cc1`, the growth inhibition call is “inactive”.

With `C[C@H](CO)N1C[C@H](C)[C@@H](CN(C)S(=O)(=O)c2cn(C)cn2)Oc2ccc(NC(=O)Cn3cnnn3)cc2C1=O`, the growth inhibition call was “inactive”.

Turning to `Cc1noc(C)c1S(=O)(=O)N(C)C[C@@H]1OCCCC[C@@H](C)Oc2ccc(NS(=O)(=O)c3cn(C)cn3)cc2C(=O)N([C@@H](C)CO)C[C@H]1C`, the growth inhibition call is “inactive”.

Consider `C[C@@H]1CN([C@H](C)CO)C(=O)Cc2cc(NC(=O)Cn3cnnn3)ccc2O[C@H]1CN(C)S(=O)(=O)c1ccccc1`, for which the growth inhibition call was “inactive”.

Turning to `C[C@@H]1CN([C@H](C)CO)C(=O)c2cc(NC(=O)Nc3ccc(C(F)(F)F)cc3)ccc2O[C@H]1CN(C)Cc1ccc(C(F)(F)F)cc1`, the growth inhibition call was “inactive”.

`CC#CCCC(=O)O`: the growth inhibition call is “inactive”.

Regarding `COc1ccc(S(=O)(=O)N2C[C@H](O)COC[C@H]3O[C@@H](CC(=O)N[C@@H]4CCN(Cc5ccccc5)C4)CC[C@@H]32)cc1`, the growth inhibition call is “inactive”.

As for `C[C@@H]1CN([C@H](C)CO)C(=O)c2cc(NC(=O)Cc3ccccc3)ccc2O[C@@H](C)CCCCO[C@@H]1CN(C)S(=O)(=O)c1ccc(F)cc1`, the growth inhibition call is “inactive”.

For `CCCNC(=O)COc1cccc([C@@H](CCc2ccc(OC)c(OC)c2)OC(=O)[C@@H]2CCCCN2C(=O)C(=O)C(C)(C)CC)c1`, the growth inhibition call was “inactive”.

Take `CC(C)(CO)[C@@H](O)C(=O)NCCCO`: the growth inhibition call was “inactive”.

In the case of `C[C@H](CO)N1C[C@H](C)[C@H](CN(C)S(=O)(=O)c2ccccc2)Oc2ccc(NC(=O)Nc3cccc4ccccc34)cc2C1=O`, the growth inhibition call is “inactive”.

For `CS(=O)(=O)N1C[C@H](NC(=O)C2CC2)[C@H]2OCCC[C@H]21`, the growth inhibition call is “inactive”.

As for `COc1ccc2c3c(n(c2c1)C)[C@@H](CO)N(C[C@]13CN(CC2CCOCC2)C1)C(=O)c1ccc(cc1)F`, the growth inhibition call is “inactive”.

Regarding `CC(C)C[C@H]1CC(=O)N=C(N)N1`, the growth inhibition call was “inactive”.

On to `C[C@H](CO)N1C[C@H](C)[C@@H](CN(C)C(=O)Nc2cccc3ccccc23)Oc2c(NC(=O)Nc3ccccc3)cccc2C1=O`, for which the growth inhibition call was “inactive”.

Take `CN1CCN(C(=O)C[C@H]2C=C[C@@H](NC(=O)c3ccc4c(c3)OCO4)[C@@H](CO)O2)CC1`: the growth inhibition call is “inactive”.

As to `C[C@H](CO)N1C[C@H](C)[C@@H](CN(C)CC2CC2)Oc2ccc(NS(=O)(=O)c3cn(C)cn3)cc2CC1=O`, the growth inhibition call was “inactive”.

Take `C[C@@H]1O[C@H](O[C@@H]2[C@H](Oc3c(-c4ccc(O)cc4)oc4cc(O)cc(O)c4c3=O)O[C@H](CO[C@@H]3O[C@H](C)[C@@H](O)[C@H](O)[C@@H]3O)[C@@H](O)[C@@H]2O)[C@@H](O)[C@H](O)[C@@H]1O`: the growth inhibition call is “inactive”.

Consider `CC1C(=O)CCC1=O`, for which the growth inhibition call was “inactive”.

With `CNC(=O)N1C[C@H]2C[C@@H]3[C@@](C1)(CN(C)S3(=O)=O)O2`, the growth inhibition call was “inactive”.

As for `C[C@@H]1CN([C@@H](C)CO)C(=O)c2cc(NC(=O)Cn3cnnn3)ccc2O[C@H]1CN(C)C(=O)Nc1ccc2c(c1)OCO2`, the growth inhibition call was “inactive”.

On to `C[C@H]1CN([C@@H](C)CO)C(=O)c2cc(NC(=O)Nc3ccc4c(c3)OCO4)ccc2O[C@@H]1CN(C)Cc1ccc(Cl)c(Cl)c1`, for which the growth inhibition call was “inactive”.

Regarding `CC(C)NC(=O)N(C)C[C@@H]1OCCCC[C@H](C)Oc2ccc(NS(C)(=O)=O)cc2C(=O)N([C@@H](C)CO)C[C@@H]1C`, the growth inhibition call is “inactive”.
